# Measurements taken from PubChem BioAssay (NCATS).
# Several values for one entry are separate records, joined by “and”; a condition that tells them apart may be missing. Identical values can stand only once. Inconclusive results, whose numbers are uncertain, are shown with a selection of clear calls. For some assays here: Potencies beside an inconclusive call are fits to weak or partial responses and may not hold up. Activity calls are given as the source filed them. Calls follow the shape of the dose curve; as a rule, active = well fitted curve in the direction sought with a large enough effect; inconclusive = small, poorly fitted or top-dose-only effect, or another doubt; inactive = no such curve, though single readings can be large; an effect the other way counts as inactive or inconclusive. Where a SMILES comes first, the peptide text is derived from it. [ ]: non-standard residue; d: D form. Ala(indol-2-yl) = N[C@@H](Cc1cc2ccccc2[nH]1)C(=O)O; Aib = CC(C)(N)C(=O)O
# Experiments:
# [1] = Primary qHTS for inhibitors of nuclear receptor binding SET domain protein 2 (NSD2) in an isogenic RCH-ACV NSD2 p.E1099K mutant (9B) (AID 1645876); conditions: RCH-ACV NSD2 E1099K (9B) viability, CellTiter-Glo, 72 h; series mostly up to 44.9 µM; also: nearly all actives have a fitted effect of over 70% in size; also: potency is read from the fitted curve at half-maximal effect; as to activity change, negative = viability loss: % is scaled to controls: 0 for no effect and ±100 for the full control effect
# [2] = Primary qHTS for inhibitors of nuclear receptor binding SET domain protein 2 (NSD2) in an RCH-ACV wild type WT cells (2C) (AID 1645877); conditions: RCH-ACV (leukaemia line) NSD2 WT (2C) viability, CellTiter-Glo, 72 h; series mostly up to 44.9 µM; also: nearly all actives have a fitted effect of over 70% in size; also: potency is read from the fitted curve at half-maximal effect; as to activity change, negative = cell killing: % is scaled to controls: 0 for no effect and ±100 for the full control effect
# [3] = Primary fluorescence-based thiol-reactive (MSTI) qHTS assay for identification of artifact compounds. (AID 1845221); conditions: MSTI thiol-reactivity probe, 1 h; series mostly up to 53.8 µM; also: potency is read from the fitted curve at half-maximal effect;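 also: thiol-reactive compounds lower the probe fluorescence signal; nearly all actives have a fitted effect of over 65% in size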
# Summary of the method: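 A multi-concentration qHTS design tested compounds against 4 uM MSTI, pH 7.4 phosphate-buffered saline. Plates were protected from light for 1 h at room temperature before imaging fluorescence.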
# [4] = target: Phospholipid hydroperoxide glutathione peroxidase GPX4 (Homo sapiens) (UniProt P36969); assay: Primary qHTS Assay for Inhibitors of Recombinant Selenoprotein Glutathione Peroxidase 4 (GPX4) (AID 1845192); conditions: recombinant GPX4, GR-coupled NADPH fluorescence, 15 min; series mostly up to 50 µM; also: nearly all actives have a fitted effect of over 65% in size; also: potency is read from the fitted curve at half-maximal effect
# Chain of UniProt P36969 (P36969 whole entry, looked up): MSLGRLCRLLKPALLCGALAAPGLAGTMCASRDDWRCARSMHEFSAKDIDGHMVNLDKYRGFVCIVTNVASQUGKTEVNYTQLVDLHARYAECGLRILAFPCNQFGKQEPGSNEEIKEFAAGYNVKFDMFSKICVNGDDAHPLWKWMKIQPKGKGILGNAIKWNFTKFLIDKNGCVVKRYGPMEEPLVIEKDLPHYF
# Summary of the method: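 NADPH consumption, followed by fluorescence at 340/450 nm between 0 and 15 min, reports GPX4 activity via coupled glutathione reductase (100 nM). Enzyme 200 nM was pre-exposed to compound 30 min; 0.5 mM cumene hydroperoxide and 1 mM GSH served as substrates.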
# [5] = target: Glutathione peroxidase 1 (Homo sapiens) (UniProt P07203); assay: Primary qHTS Assay for Inhibitors of Recombinant Selenoprotein Glutathione Peroxidase 1 (GPX1) (AID 1845191); conditions: recombinant GPX1, GR-coupled NADPH fluorescence, 15 min; series mostly up to 48.8 µM; also: nearly all actives have a fitted effect of over 65% in size; also: potency is read from the fitted curve at half-maximal effect
# Chain of UniProt P07203 (P07203 whole entry, looked up): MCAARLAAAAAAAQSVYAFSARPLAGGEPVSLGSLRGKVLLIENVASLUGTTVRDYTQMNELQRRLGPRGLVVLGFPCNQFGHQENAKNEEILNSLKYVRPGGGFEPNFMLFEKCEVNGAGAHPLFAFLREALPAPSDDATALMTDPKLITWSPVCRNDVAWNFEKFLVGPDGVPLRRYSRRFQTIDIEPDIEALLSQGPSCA
# Summary of the method: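 10 nM GPX1 + cpd, 30 min RT; start w/ 1 mM GSH, 0.5 mM cumene hydroperoxide, 0.5 mM NADPH, 100 nM GR, 0.01% BSA; buffer 50 mM Tris-HCl pH 7.5, 2 mM EDTA, 150 mM NaCl; Fl 340/450, 0 & 15 min.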
# [6] = target: Rap guanine nucleotide exchange factor 4 (Homo sapiens) (UniProt Q8WZA2); assay: Confirmatory qHTS for antagonist of cAMP-regulated guanine nucleotide exchange factor 4 (EPAC2) (AID 1645885); conditions: EPAC2 Rap1B-BODIPY-GDP exchange fluorescence, biochemical; series mostly up to 114 µM; also: potency is read from the fitted curve at half-maximal effect; nearly all actives have a fitted effect of over 25% in size
# Chain of UniProt Q8WZA2 (Q8WZA2 whole entry, looked up): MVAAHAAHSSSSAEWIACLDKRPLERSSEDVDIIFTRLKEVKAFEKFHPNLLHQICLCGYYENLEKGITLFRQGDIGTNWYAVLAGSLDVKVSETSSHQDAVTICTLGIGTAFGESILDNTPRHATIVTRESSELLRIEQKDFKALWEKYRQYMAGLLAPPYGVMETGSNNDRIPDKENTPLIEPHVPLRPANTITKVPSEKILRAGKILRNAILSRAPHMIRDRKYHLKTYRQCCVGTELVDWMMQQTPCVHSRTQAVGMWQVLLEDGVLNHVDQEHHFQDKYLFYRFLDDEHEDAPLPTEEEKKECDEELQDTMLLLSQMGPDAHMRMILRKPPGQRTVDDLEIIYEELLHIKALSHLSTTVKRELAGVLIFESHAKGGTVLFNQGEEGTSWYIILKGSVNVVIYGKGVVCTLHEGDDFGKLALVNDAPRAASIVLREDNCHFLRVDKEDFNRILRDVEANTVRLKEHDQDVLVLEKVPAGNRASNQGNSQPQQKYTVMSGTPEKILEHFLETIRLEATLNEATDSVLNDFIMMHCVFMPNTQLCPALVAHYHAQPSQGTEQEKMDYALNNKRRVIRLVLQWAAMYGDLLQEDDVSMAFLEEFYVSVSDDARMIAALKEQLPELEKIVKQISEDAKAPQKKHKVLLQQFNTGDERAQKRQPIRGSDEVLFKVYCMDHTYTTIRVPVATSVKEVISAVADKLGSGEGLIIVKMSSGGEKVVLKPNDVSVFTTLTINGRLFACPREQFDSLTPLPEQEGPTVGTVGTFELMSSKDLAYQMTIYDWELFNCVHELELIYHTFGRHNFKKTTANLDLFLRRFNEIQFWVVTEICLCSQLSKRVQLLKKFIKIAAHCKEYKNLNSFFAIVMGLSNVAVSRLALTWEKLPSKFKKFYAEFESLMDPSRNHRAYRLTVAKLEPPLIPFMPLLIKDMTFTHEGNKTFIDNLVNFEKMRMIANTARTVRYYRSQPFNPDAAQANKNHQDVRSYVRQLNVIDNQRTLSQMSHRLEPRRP
# [7] = target: Rap guanine nucleotide exchange factor 3 (Homo sapiens) (UniProt O95398); assay: Confirmatory qHTS for antagonist of cAMP-regulated guanine nucleotide exchange factor 3 (EPAC1) (AID 1645880); conditions: EPAC1 Rap1B-BODIPY-GDP exchange, fluorescence; series mostly up to 115 µM; also: potency is read from the fitted curve at half-maximal effect; nearly all actives have a fitted effect of over 55% in size
# Chain of UniProt O95398 (O95398 whole entry, looked up): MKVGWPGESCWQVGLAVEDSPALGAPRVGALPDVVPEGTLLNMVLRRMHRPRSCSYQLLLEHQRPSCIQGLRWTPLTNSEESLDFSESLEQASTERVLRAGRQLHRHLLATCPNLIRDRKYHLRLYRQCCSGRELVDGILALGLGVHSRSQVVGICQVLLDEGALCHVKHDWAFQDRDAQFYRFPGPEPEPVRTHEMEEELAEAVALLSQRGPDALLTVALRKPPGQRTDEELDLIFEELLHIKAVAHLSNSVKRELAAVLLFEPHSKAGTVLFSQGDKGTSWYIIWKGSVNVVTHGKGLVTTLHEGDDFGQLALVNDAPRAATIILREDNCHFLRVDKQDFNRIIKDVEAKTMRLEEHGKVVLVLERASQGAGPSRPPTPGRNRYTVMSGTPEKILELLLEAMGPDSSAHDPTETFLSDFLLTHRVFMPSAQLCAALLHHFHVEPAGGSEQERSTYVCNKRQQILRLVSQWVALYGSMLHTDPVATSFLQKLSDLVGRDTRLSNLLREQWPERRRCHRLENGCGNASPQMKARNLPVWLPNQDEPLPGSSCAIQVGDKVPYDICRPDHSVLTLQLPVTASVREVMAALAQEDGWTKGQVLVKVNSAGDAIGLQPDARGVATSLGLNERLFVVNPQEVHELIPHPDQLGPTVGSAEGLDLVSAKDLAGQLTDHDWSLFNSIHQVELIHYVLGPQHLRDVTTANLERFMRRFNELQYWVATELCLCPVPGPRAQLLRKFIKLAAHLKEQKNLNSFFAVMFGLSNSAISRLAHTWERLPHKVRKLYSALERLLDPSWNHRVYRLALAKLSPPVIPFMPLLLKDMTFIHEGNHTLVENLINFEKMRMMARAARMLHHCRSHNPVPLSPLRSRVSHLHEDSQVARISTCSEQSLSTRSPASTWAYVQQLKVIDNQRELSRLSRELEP
# Summary of the method: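 Nucleotide exchange uses 100 nM EPAC1, 250 nM RAP1B-BODIPY-GDP and 50 uM GDP, with compounds in a concentration-titration series. After 5 min at room temperature, fluorescence (480 nm ex/540 nm em) is read every 5 min for 30 min. Data are normalized to control ATA and DMSO.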
# [8] = target: Luciferin 4-monooxygenase (Photinus pyralis) (UniProt P08659); assay: Primary firefly luciferase (FLuc) qHTS assay for identification of artifact compounds. (AID 1845220); conditions: purified firefly luciferase, luminescence, 5 min; series mostly up to 54.1 µM; also: nearly all actives have a fitted effect of over 60% in size
# Summary of the method: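 Cell-free, 1536-well qHTS. Buffer pH 7.6 with 0.01% Tween-20 and 0.05% BSA; 10 uM D-luciferin, 10 uM ATP; 10 nM P. pyralis luciferase; luminescence after 5 min.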
# [9] = NCATS anti-infectives library activity on HEK293 viability as a counter-qHTS vs the C. elegans viability qHTS (AID 1745854); conditions: HEK293 viability counter-screen; series mostly up to 41.8 µM;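 also: HEK293 cells exposed to compounds for 24 hr before the viability read; % is scaled to controls: 0 for no effect and ±100 for the full control effect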
# Summary of the method: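 Cytotoxicity in human HEK293 cells is measured by ATP-dependent CellTiter-Glo luminescence following a 24 hr incubation with titrated library compounds at 37C. Top final concentration is 41.7 uM.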
# Tags tell the direction and shape of the fitted curve.
smiles,measurement,setting,value
CCCCOC(=O)c1ccnc2cc(C(OCCN3CCCCC3)c3ccccc3Cl)sc12 (stereo not given),Potency,[1],active: 23 µM
same,Potency,[2],"inconclusive: 18.3 µM [inhibitor, single point]"
same,Potency,[3],"inconclusive: 37.7 µM [inhibitor, single point]"
C=C(C)[C@H]1O[C@H]2CC[C@@]3(C)[C@@](O)(CC[C@H]4[C@@H]5OC(C)(C)[C@H]6C[C@@H]7C(=C)Cc8c(Cl)cc9[nH]c(c5c9c8[C@@]76O)[C@@]43C)[C@]23O[C@@H]3[C@H]1O,Potency,[1],"inconclusive: 5.41 µM [inhibitor, single point]"
same,Potency,[2],"inconclusive: 6.08 µM [inhibitor, single point]"
same,Potency,[3],active: 6.3 µM
CCc1nn(C)c(C(=O)NCc2ccc(Oc3ccc(C)cc3)cc2)c1Cl,Potency,[1],active: 0.817 µM
same,Potency,[2],"inconclusive: 14.5 µM [inhibitor, partial curve, poor fit]"
same,Potency,[4],inactive
CC(C)(NC(=O)[C@@H](N)Cc1ccc(O)cc1)C(=O)N[C@@H](Cc1cc2ccccc2[nH]1)C(=O)N[C@@H](Cc1ccccc1)C(=O)O (H-Y[Aib][Ala(indol-2-yl)]F-OH),"activity change, negative = viability loss",[1],inactive: -7% [at 9.23 µM]
same,"activity change, negative = cell killing",[2],inactive: -2.68% [at 9.23 µM]
same,"activity change, negative = thiol reactive",[3],inactive: 54.2% [at 11.5 µM]
C=C1C2(C)CC3C(C)(O)C4=CC(=O)OC(C)(C)C4=CCC3(C)C13C(=O)OC(C)C3(O)C2=O (stereo not given),Potency,[1],"inconclusive: 15.9 µM [inhibitor, single point]"
same,Potency,[2],"inconclusive: 15.9 µM [inhibitor, single point]"
same,Potency,[5],"inconclusive: 12.4 µM [inhibitor, partial curve, poor fit]"
same,Potency,[3],"inconclusive: 7.33 µM [inhibitor, partial curve, poor fit]"
O=C1c2ccccc2C(=O)C1C(=O)C(c1ccccc1)c1ccccc1,Potency,[1],"inconclusive: 33.5 µM [inhibitor, single point]"
same,Potency,[2],"inconclusive: 21.1 µM [inhibitor, single point]"
same,Potency,[6],"inconclusive: 62.2 µM [inhibitor, partial curve]"
CCCCOC(=O)c1ccccc1C(=O)OCc1ccccc1,Potency,[1],"inconclusive: 43.3 µM [inhibitor, single point]"
same,Potency,[2],"inconclusive: 68.6 µM [inhibitor, single point]"
same,Potency,[6],"inconclusive: 8.49 µM [inhibitor, single point]"
COP(=S)(OC)SCN1C(=O)c2ccccc2C1=O,Potency,[1],"inconclusive: 5.31 µM [inhibitor, single point]"
same,Potency,[2],"inconclusive: 7.5 µM [inhibitor, partial curve, poor fit]"
same,Potency,[5],"inconclusive: 22.7 µM [inhibitor, partial curve]"
COc1cc(O)c2c(c1)CCC[C@@H](O)[C@H](O)C(=O)/C=C\C[C@H](C)OC2=O,Potency,[1],active: 8.01 µM
same,Potency,[2],active: 4.5 µM
same,Potency,[3],inactive
O=C(O)C(=O)c1cn(Cc2ccccc2)c2ccc(-c3ccc(OC(F)(F)F)cc3)cc12,Potency,[1],"inconclusive: 37.2 µM [inhibitor, single point]"
same,Potency,[2],"inconclusive: 10.3 µM [inhibitor, partial curve]"
same,Potency,[4],active: 9.04 µM
NNC(=O)c1nn(Cc2ccc(Cl)cc2Cl)c2ccccc12,Potency,[1],"inconclusive: 23 µM [inhibitor, single point]"
same,Potency,[2],"inconclusive: 32.5 µM [inhibitor, single point]"
same,Potency,[3],inactive
CC(=O)O[C@H]1C(=O)[C@]2(C)C(O)C[C@H]3OC[C@@]3(OC(C)=O)[C@H]2[C@H](OC(=O)c2ccccc2)[C@]2(O)C[C@H](O)C(C)=C1C2(C)C (stereo not given in full),Potency,[1],"inconclusive: 6.08 µM [inhibitor, single point]"
same,Potency,[2],active: 5.41 µM
same,Potency,[3],"inconclusive: 3.16 µM [inhibitor, partial curve]"
COc1cc2c(cc1O)C1(C)CCC(O)C(C)(C)C1CC2=O (stereo not given),Potency,[1],inactive
same,Potency,[2],inactive
same,Potency,[3],"inconclusive: 10.6 µM [inhibitor, partial curve]"
CCOC(=O)c1ccnc2cc(C(OCCN3CCCCC3)c3ccccc3Cl)sc12 (stereo not given),Potency,[1],active: 23 µM
same,Potency,[2],active: 20.5 µM
same,Potency,[3],inactive
CN(C)[C@@H]1C(=O)C(C(N)=O)=C(O)[C@@]2(O)C(=O)C3=C(O)c4c(O)cccc4[C@@](C)(O)[C@H]3[C@H](O)[C@@H]12,Potency,[1],"inconclusive: 37.2 µM [inhibitor, single point]"
same,Potency,[7],"inconclusive: 20.9 µM [inhibitor, partial curve]"
O=C(NCC1CCOCC1)c1cnc(Nc2ccc(Cl)cc2Cl)nc1C(F)(F)F,Potency,[1],"inconclusive: 18.3 µM [inhibitor, single point]"
same,Potency,[2],"inconclusive: 16.3 µM [inhibitor, partial curve] and inactive"
same,Potency,[4],inactive
O=C(N[C@H]1N=C(c2ccccc2F)c2cccc3c2N(CC3)C1=O)c1cc2ccccc2[nH]1,Potency,[1],"inconclusive: 18.8 µM [inhibitor, partial curve, poor fit]"
same,Potency,[2],"inconclusive: 14.5 µM [inhibitor, partial curve]"
same,Potency,[4],"inconclusive: 25.5 µM [inhibitor, partial curve, poor fit]"
CN(C)[C@@H]1C(=O)C(C(N)=O)=C(O)[C@@]2(O)C(=O)C3=C(O)c4c(O)cccc4[C@@](C)(O)[C@H]3C[C@@H]12,Potency,[1],"inconclusive: 33.2 µM [inhibitor, single point]"
same,Potency,[2],"inconclusive: 33.2 µM [inhibitor, single point]"
same,Potency,[4],"inactive and inconclusive: 20.2 µM [inhibitor, single point]"
COc1ccc2c3c([nH]c2c1)C(C=C(C)C)N1C(=O)C2CCCN2C(=O)C1C3 (stereo not given),Potency,[1],"inconclusive: 14.2 µM [inhibitor, partial curve, poor fit]"
same,Potency,[2],"inconclusive: 12.7 µM [inhibitor, partial curve, poor fit]"
same,Potency,[3],"inconclusive: 2.93 µM [inhibitor, full curve]"
COC1CC(OC2CCC3(C)C(CCC4C3CCC3(C)C(C5=CC(=O)OC5)C(OC(C)=O)CC43O)C2)OC(C)C1OC1OC(CO)C(O)C(O)C1O (stereo not given),Potency,[1],active: 0.483 µM
same,Potency,[2],active: 1.21 µM
same,Potency,[3],"inconclusive: 12.6 µM [inhibitor, single point]"
CC1CCCCCC(=O)c2c(O)cc(O)cc2CC(=O)O1 (stereo not given),Potency,[1],"inconclusive: 32.5 µM [inhibitor, single point]"
same,Potency,[2],"inconclusive: 29 µM [inhibitor, single point]"
same,Potency,[4],inactive
CC1C/C=C/C(O)C(O)CC/C=C/c2cc(O)cc(O)c2C(=O)O1 (stereo not given),Potency,[1],"inconclusive: 20.1 µM [inhibitor, single point]"
same,Potency,[2],"inconclusive: 20.1 µM [inhibitor, single point]"
same,Potency,[3],"inconclusive: 9.27 µM [inhibitor, partial curve]"
CC(=O)O[C@H]1CC[C@@]2(CI)C(=CC[C@@H]3[C@@H]2CC[C@]2(C)C(=O)CC[C@@H]32)C1,Potency,[1],"inconclusive: 18.3 µM [inhibitor, single point]"
same,Potency,[2],"inconclusive: 29 µM [inhibitor, single point]"
same,Potency,[8],inactive
CCCCCn1cc(C(=O)Cc2ccccc2OC)c2ccccc21,Potency,[1],"inconclusive: 23 µM [inhibitor, single point]"
same,Potency,[2],"inconclusive: 8.17 µM [inhibitor, partial curve]"
same,Potency,[3],inactive
O=[N+]([O-])c1ccc([As](=O)(O)O)cc1,Potency,[1],"inconclusive: 33.5 µM [inhibitor, single point]"
same,Potency,[2],"inconclusive: 26.6 µM [inhibitor, single point]"
same,Potency,[5],inactive
CC[C@H]1C[C@H]2[C@@H]3CCC4=CC(=O)CC[C@@H]4[C@H]3CC[C@]2(C)[C@H]1O,Potency,[1],"inconclusive: 20.5 µM [inhibitor, partial curve]"
same,Potency,[2],"inconclusive: 25.8 µM [inhibitor, single point]"
same,Potency,[3],inactive
CCC(C)(OC(C)=O)C(=O)O[C@H]1[C@H](OC(C)=O)C[C@@H]2[C@@](C)([C@@H]3C[C@H]4C=CO[C@H]4O3)[C@H](C)C[C@H](OC(C)=O)[C@@]2(COC(C)=O)[C@@]12CO2 (stereo not given in full),Potency,[1],inactive
same,Potency,[2],inactive
same,Potency,[5],inactive
Cc1c(Cl)c(=O)oc2cc(OP(=O)(OCCCl)OCCCl)ccc12,Potency,[1],"inconclusive: 33.5 µM [inhibitor, single point]"
same,Potency,[2],"inconclusive: 29.9 µM [inhibitor, single point]"
same,Potency,[5],"inconclusive: 20.2 µM [inhibitor, partial curve, poor fit]"
CCC1=CC2CN3CCc4c([nH]c5ccccc45)[C@@](C(=O)OC)(C2)[C@@H]13,Potency,[1],"inconclusive: 20.1 µM [inhibitor, single point]"
same,Potency,[2],"inconclusive: 17.9 µM [inhibitor, single point]"
same,Potency,[4],"inconclusive: 22.2 µM [inhibitor, single point]"
same,Potency,[3],"inconclusive: 7.36 µM [inhibitor, partial curve]"
C#CC1(O)CCC2C3CCC4=CC(=O)CCC4=C3C=CC21C (stereo not given),Potency,[1],"inconclusive: 23 µM [inhibitor, partial curve]"
same,Potency,[2],"inconclusive: 16.3 µM [inhibitor, single point]"
same,Potency,[4],"inconclusive: 28.6 µM [inhibitor, single point]"
same,Potency,[8],inactive
C[C@@H]1CC[C@H]2[C@@H](C)C(=O)O[C@@H]3O[C@@]4(C)CC[C@@H]1[C@]32OO4,Potency,[1],"inconclusive: 1.33 µM [inhibitor, full curve] and inconclusive: 5.9 µM [inhibitor, partial curve]"
same,Potency,[2],"inconclusive: 1.19 µM [inhibitor, full curve]"
same,Potency,[9],inactive
